In patent publication US7166475B2, “Compositions and methods for monitoring the modification state of a pair of polypeptides” (Cyclacel Ltd., priority 1999, dated 2007):

Assays:
PKA = PKA (Homo sapiens, UniProt P17612); assay: Timecourse of phosphorylation by PKA (32P-ATP); assay type: biochemical; conditions: 0.5 μM PKA, 0.2 mM ATP
Method: A timecourse of phosphorylation of these peptides by PKA is run in 50 mM histidine/HCl (pH 7.0), 5 mM MgSO4, 5 mM NaF, 0.05 mM EGTA, 120 mM kcb with 0.2 mM ATP (30.9 cpm/pmol ^32P-ATP) and 0.5 μM PKA. […] Zip4T is also phosphorylated, at a slower rate, with full phosphorylation achieved in 30 minutes in this assay. In this assay, the difference in cpm recovered between the Zip4 peptides and PL919Y is due to the difference in recovery of these peptides on P81 paper. The plateau indicates full phosphorylation.
A set of timecourses of phosphorylation is performed on Zip4S using PKA and Ca^2+/Calmodulin-dependent Protein Kinase (CaMK-II), together with positive and negative controls for CaMK-II (these controls confirm that the preparation of CaMK-II posesses the expected characteristics of that enzyme). PKA phosphorylation is performed in 50 mM histidine/HCl (pH 7.0), 5 mM MgSO4, 5 mM NaF, 0.05 mM EGTA, 120 mM kcb with 0.2 mM ATP (39.72 cpm/pmol ^32P-ATP) and 0.25 μM PKA. CaMK-II phosphorylation is performed in 50 mM histidine/HCl (pH 7.0), 5 mM MgSO4, 5 mM NaF, 120 mM kcb, 0.5 mM Ca^2+, 0.037 mg/ml calmodulin with 0.2 mM ATP (39.72 cpm/pmol ^32P-ATP) and 10% crude CaMK-II. In the Ca^2+-free experiment, Ca^2+ is replaced by 0.05 mM EGTA. […]

[1] = assay type: physicochemical
Method: The circular dichroism (measured in units of ellipticity) of proteins at 222 nm provides a measure of the amount of a-helix present in the structure, with a large, negative ellipticity indicting a high level of helicity. The coiled-coil has a distinctive a-helical CD spectrum with minima at 222 nm and 208 nm (O'Shea et al., 1989, Science, 243: 538–542). The CD spectra of the unmodified Zip3 and its phosphorylated form (‘Zip3P’) are determined at a sample concentration of 10 μM in 150 mM KCB, 42.2 mM K2HPO4, 7.8 mM KH2PO4, pH 7.0 at 20° C.; spectra are recorded using a 1 mm pathlength cell in a Jasco J-715 spectropolarimeter with a Jasco PTC-348W Peltier temperature control unit. Peptide concentration is determined by tyrosine absorbance at 280 nm in 6M GuHCl. […] The effipticities of Zip3 and Zip3P at 222 nm with increasing temperature are measured. The steep portion of the sigmoid curve for Zip3 indicates the unfolding of the molecule. It is clear that this leucine zipper peptide begins to unfold at around 35° C. and is completely unfolded by 70° C. […]
The circular dichroism (measured in units of ellipticity) of proteins at 222 nm provides a measure of the amount of a-helix present in the structure, with a large, negative ellipticity indicting a high level of helicity. […] In all experiments described herein, peptide concentration is determined by tyrosine absorbance at 280 nm in 6M GnHCl.

carboxypeptidase = assay: Carboxypeptidase digestion, FRET; assay type: biochemical
peptide D = assay: FRET of fluorescein-labelled peptides N and C with rhodamine-labelled peptide D; assay type: binding; conditions: no peptidase
caspase 2 = molecular target: T1, caspase 2 (Homo sapiens, UniProt P42575); assay: Caspase 2 cleavage of immobilised peptides, FRET; assay type: biochemical; conditions: procedure of Example 10, caspase 2 in place of thrombin
T1 sequence (P42575 170-325 limits assumed): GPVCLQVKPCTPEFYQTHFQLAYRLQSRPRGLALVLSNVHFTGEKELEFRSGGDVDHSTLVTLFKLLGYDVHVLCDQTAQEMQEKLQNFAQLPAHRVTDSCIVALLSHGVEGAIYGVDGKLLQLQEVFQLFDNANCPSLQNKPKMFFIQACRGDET
T1 sequence (P42575 348-452 limits assumed): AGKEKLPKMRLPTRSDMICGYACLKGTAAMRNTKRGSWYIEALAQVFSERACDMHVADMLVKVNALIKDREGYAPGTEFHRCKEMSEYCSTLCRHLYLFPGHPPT

R MKQLEDQ VRRLRRK TYHLENE VACLKKL VGERAAK (RMKQLEDQVRRLRRKTYHLENEVACLKKLVGERAAK) [Zip4T]
time to full phosphorylation by PKA (PKA): 30 min
phosphorylation by PKA (substrate quality, rate) (PKA; compared with known substrate PL919Y): slower rate
relative thermostability (CD) [1]: more stable than was Zip4S

HHHHHHGGIAQLEQEIAQLEQENAQLEQEIAQL [Peptide C]
FRET of pair with peptide D after addition of carboxypeptidase (carboxypeptidase): abolishes FRET
FRET in the presence of rhodamine-labelled peptide D (peptide D): FRET is observed

HHHHHHGGIAQLEQEIAQLEDENDQLEQEIAQLEQEIAKLEQE [Peptide 4]
FRET result with caspase 2 compared with Example 10 (thrombin) (caspase 2): identical results
